According to the supplement of paper PMC8728848:
Some of the results follow.

Columns and labels:
Assay in all cases: glycan array binding signal (z-score within array); higher = stronger binding
Details in all cases: glycan notation: IUPAC condensed, linker removed
[1] = biological target: Gal(b1-4)GlcNAc(b1-2)[Gal(b1-4)GlcNAc(b1-4)]Man(a1-3)[GlcNAc(b1-4)][Gal(b1-4)GlcNAc(b1-2)Man(a1-6)]Man(b1-4)GlcNAc(b1-4)GlcNAc
Summary of the method: (§1)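 Glycan array data came from 3228 arrays in the Consortium for Functional Glycomics database, and only arrays with an available protein sequence were kept. Glycan names were put into IUPAC-condensed notation, and columns mapping to the same glycan were averaged. The binding signal is a within-array Z-score, averaged across arrays of one protein sequence run at different concentrations or buffers and across linkers. A negative Z-score can be read as non-binding.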

[2] = biological target: Gal(b1-4)GlcNAc(b1-2)[Gal(b1-4)GlcNAc(b1-4)]Man(a1-3)[GlcNAc(b1-4)][Gal(b1-4)GlcNAc(b1-2)[Gal(b1-4)GlcNAc(b1-6)]Man(a1-6)]Man(b1-4)GlcNAc(b1-4)GlcNAc
Summary of the method: as §1

[3] = biological target: Gal(b1-4)GlcNAc(b1-2)[Gal(b1-4)GlcNAc(b1-4)]Man(a1-3)[GlcNAc(b1-4)][Gal(b1-4)GlcNAc(b1-2)[Gal(b1-4)GlcNAc(b1-6)]Man(a1-6)]Man(b1-4)GlcNAc(b1-4)[Fuc(a1-6)]GlcNAc
Summary of the method: as §1

[4] = biological target: Gal(b1-4)GlcNAc(b1-2)[Gal(b1-4)GlcNAc(b1-6)]Man(a1-6)[Gal(b1-4)GlcNAc(b1-2)Man(a1-3)]Man(b1-4)GlcNAc(b1-4)GlcNAc
Summary of the method: as §1

[5] = biological target: Gal(b1-4)GlcNAc(b1-2)[Gal(b1-4)GlcNAc(b1-6)]Man(a1-6)[Gal(b1-4)GlcNAc(b1-2)Man(a1-3)]Man(b1-4)GlcNAc(b1-4)[Fuc(a1-6)]GlcNAc
Summary of the method: as §1

[6] = biological target: Gal(b1-4)GlcNAc(b1-2)[Gal(b1-4)GlcNAc(b1-6)]Man(a1-6)[GlcNAc(b1-4)][Gal(b1-4)GlcNAc(b1-2)Man(a1-3)]Man(b1-4)GlcNAc(b1-4)GlcNAc
Summary of the method: as §1

[7] = biological target: Gal(b1-4)GlcNAc(b1-3)Gal(b1-3)GlcNAc
Summary of the method: as §1

[8] = biological target: Gal(b1-4)GlcNAc(b1-3)Gal(b1-4)Glc
Summary of the method: as §1

[9] = biological target: Gal(b1-4)GlcNAc(b1-3)Gal(b1-4)GlcNAc
Summary of the method: as §1

[10] = biological target: Gal(b1-4)GlcNAc(b1-3)Gal(b1-4)GlcNAc(b1-3)Gal(b1-4)GlcNAc
Summary of the method: as §1

[11] = biological target: Gal(b1-4)GlcNAc(b1-3)Gal(b1-4)[Fuc(a1-3)GlcNAc(b1-6)]Gal(b1-4)Glc
Summary of the method: as §1

[12] = biological target: Gal(b1-4)GlcNAc(b1-3)Gal(b1-4)[Fuc(a1-3)]GlcNAc(b1-3)Gal(b1-4)[Fuc(a1-3)]GlcNAc
Summary of the method: as §1

[13] = biological target: Gal(b1-4)GlcNAc(b1-3)GalNAc
Summary of the method: as §1

[14] = biological target: Gal(b1-4)GlcNAc(b1-3)[Gal(b1-4)GlcNAc(b1-6)]Gal(b1-4)GlcNAc
Summary of the method: as §1

[15] = biological target: Gal(b1-4)GlcNAc(b1-3)[Gal(b1-4)GlcNAc(b1-6)]GalNAc
Summary of the method: as §1

[16] = biological target: Gal(b1-4)GlcNAc(b1-3)[GlcNAc(b1-6)]Gal(b1-4)GlcNAc
Summary of the method: as §1

[17] = biological target: Gal(b1-4)GlcNAc(b1-6)Gal(b1-4)GlcNAc
Summary of the method: as §1

[18] = biological target: Gal(b1-4)GlcNAc(b1-6)GalNAc
Summary of the method: as §1

[19] = biological target: Gal(b1-4)GlcNAc(b1-6)[Gal(b1-3)]GalNAc
Summary of the method: as §1

Gal(b1-4)GlcNAc6P = biological target: Gal(b1-4)GlcNAc6P
Summary of the method: as §1

Gal(b1-6)Gal = biological target: Gal(b1-6)Gal
Summary of the method: as §1

Gal3S(b1-3)GalNAc = biological target: Gal3S(b1-3)GalNAc
Summary of the method: as §1

Gal3S(b1-3)GlcNAc = biological target: Gal3S(b1-3)GlcNAc
Summary of the method: as §1

[20] = biological target: Gal3S(b1-3)[Fuc(a1-4)]GlcNAc
Summary of the method: as §1

Gal3S(b1-4)Glc = biological target: Gal3S(b1-4)Glc
Summary of the method: as §1

Gal3S(b1-4)Glc6S = biological target: Gal3S(b1-4)Glc6S
Summary of the method: as §1

Gal3S(b1-4)GlcNAc = biological target: Gal3S(b1-4)GlcNAc
Summary of the method: as §1

Gal3S(b1-4)GlcNAc6S = biological target: Gal3S(b1-4)GlcNAc6S
Summary of the method: as §1

[21] = biological target: Gal3S(b1-4)[Fuc(a1-3)]Glc
Summary of the method: as §1

[22] = biological target: Gal3S(b1-4)[Fuc(a1-3)]Glc6S
Summary of the method: as §1

Gal3S4S(b1-4)GlcNAc = biological target: Gal3S4S(b1-4)GlcNAc
Summary of the method: as §1

Gal3S6S(b1-4)GlcNAc = biological target: Gal3S6S(b1-4)GlcNAc
Summary of the method: as §1

Gal3S6S(b1-4)GlcNAc6S = biological target: Gal3S6S(b1-4)GlcNAc6S
Summary of the method: as §1

Gal4S(b1-4)GlcNAc = biological target: Gal4S(b1-4)GlcNAc
Summary of the method: as §1

Gal4S6S(b1-4)GlcNAc = biological target: Gal4S6S(b1-4)GlcNAc
Summary of the method: as §1

Gal6P(b1-4)GlcNAc = biological target: Gal6P(b1-4)GlcNAc
Summary of the method: as §1

Gal6S(b1-3)GlcNAc = biological target: Gal6S(b1-3)GlcNAc
Summary of the method: as §1

Gal6S(b1-3)GlcNAc6S = biological target: Gal6S(b1-3)GlcNAc6S
Summary of the method: as §1

Gal6S(b1-4)Glc = biological target: Gal6S(b1-4)Glc
Summary of the method: as §1

Gal6S(b1-4)Glc6S = biological target: Gal6S(b1-4)Glc6S
Summary of the method: as §1

Gal6S(b1-4)GlcNAc = biological target: Gal6S(b1-4)GlcNAc
Summary of the method: as §1

Gal6S(b1-4)GlcNAc6S = biological target: Gal6S(b1-4)GlcNAc6S
Summary of the method: as §1

GalNAc(a1-3)Gal = biological target: GalNAc(a1-3)Gal
Summary of the method: as §1

GalNAc(a1-3)GalNAc = biological target: GalNAc(a1-3)GalNAc
Summary of the method: as §1

[23] = biological target: GalNAc(a1-3)GalNAc(b1-3)Gal(a1-4)Gal(b1-4)Glc
Summary of the method: as §1

B1: OrfX (Escherichia coli), Q9X4B6_ECOLX (protein)
chain: MIKIARIAVTLGLLSSLGAQAYAAGLVVNDNDLRNDLAWLSDRGVIHLSLSTWPLSQEEIARALKKAKPSYSSEQVVLARINQRLSALKADFRVTGYTSTDQPGTPQGFGQTQPADNSLGLAFNNSGEWWDVHLQGNVEGGERISNGSRFNANGAYGAVKFWNQWLSFGQVPQWWGPGYEGSLIRGDAMRPMTGFLMQRAEQAAPETWWLRWVGPWQYQISASQMNQYTAVPHAKIIGGRFTFTPFQSLELGASRIMQWGGEGRPQSFSSFWDGFTGHDNTGTDNEPGNQLAGFDFKFKLEPTLGWPVSFYGQMVGEDESGYLPSANMFLGGVEGHHGWGKDTVNWYVEAHDTRTNMSRTNYSYTHHIYKDGYYQQGYPLGDAMGGDGQLIAGKVELITEDNQRWSTRLVYAKVNPENQSINKAFPHADTLKGLQLGWSGDVYQSVRLNTSLWYTNANNSDSDDVGASAGIEIPFSL
[1]
  glycan array binding signal (z-score): -0.323
[2]
  glycan array binding signal (z-score): -0.369
[3]
  glycan array binding signal (z-score): -0.388
[4]
  glycan array binding signal (z-score): -0.191
[5]
  glycan array binding signal (z-score): -0.387
[6]
  glycan array binding signal (z-score): -0.353
[7]
  glycan array binding signal (z-score): -0.066
[8]
  glycan array binding signal (z-score): -0.162
[9]
  glycan array binding signal (z-score): -0.309
[10]
  glycan array binding signal (z-score): -0.265
[11]
  glycan array binding signal (z-score): -0.188
[12]
  glycan array binding signal (z-score): -0.216
[13]
  glycan array binding signal (z-score): -0.124
[14]
  glycan array binding signal (z-score): -0.378
[15]
  glycan array binding signal (z-score): -0.152
[16]
  glycan array binding signal (z-score): -0.224
[17]
  glycan array binding signal (z-score): 0.129
[18]
  glycan array binding signal (z-score): 0.012
[19]
  glycan array binding signal (z-score): -0.078
Gal(b1-4)GlcNAc6P
  glycan array binding signal (z-score): 0.611
Gal(b1-6)Gal
  glycan array binding signal (z-score): 0.048
Gal3S(b1-3)GalNAc
  glycan array binding signal (z-score): -0.272
Gal3S(b1-3)GlcNAc
  glycan array binding signal (z-score): -0.202
[20]
  glycan array binding signal (z-score): -0.006
Gal3S(b1-4)Glc
  glycan array binding signal (z-score): 0.076
Gal3S(b1-4)Glc6S
  glycan array binding signal (z-score): -0.206
Gal3S(b1-4)GlcNAc
  glycan array binding signal (z-score): -0.17
Gal3S(b1-4)GlcNAc6S
  glycan array binding signal (z-score): 0.921
[21]
  glycan array binding signal (z-score): -0.08
[22]
  glycan array binding signal (z-score): 2.79
Gal3S4S(b1-4)GlcNAc
  glycan array binding signal (z-score): 0.796
Gal3S6S(b1-4)GlcNAc
  glycan array binding signal (z-score): 0.287
Gal3S6S(b1-4)GlcNAc6S
  glycan array binding signal (z-score): -0.098
Gal4S(b1-4)GlcNAc
  glycan array binding signal (z-score): -0.2
Gal4S6S(b1-4)GlcNAc
  glycan array binding signal (z-score): 0.039
Gal6P(b1-4)GlcNAc
  glycan array binding signal (z-score): 1.64
Gal6S(b1-3)GlcNAc
  glycan array binding signal (z-score): -0.096
Gal6S(b1-3)GlcNAc6S
  glycan array binding signal (z-score): 1.84
Gal6S(b1-4)Glc
  glycan array binding signal (z-score): 0.055
Gal6S(b1-4)Glc6S
  glycan array binding signal (z-score): 0.49
Gal6S(b1-4)GlcNAc
  glycan array binding signal (z-score): -0.003
Gal6S(b1-4)GlcNAc6S
  glycan array binding signal (z-score): 2.74
GalNAc(a1-3)Gal
  glycan array binding signal (z-score): 0.04
GalNAc(a1-3)GalNAc
  glycan array binding signal (z-score): -0.159
[23]
  glycan array binding signal (z-score): -0.251
